The chains are these.
T1: UNK ZnF1-3 (human, UniProt Q9C0B0 31-174)
T1 sequence: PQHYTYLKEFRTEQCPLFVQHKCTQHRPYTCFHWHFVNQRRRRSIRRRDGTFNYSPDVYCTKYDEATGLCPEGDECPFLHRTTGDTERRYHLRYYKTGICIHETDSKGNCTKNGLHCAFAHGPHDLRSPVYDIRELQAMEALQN

B1: chr5:21408736:21408737:-_ENSMUSG00000042453_ENSMUST00000161356|mus_hu|mus_mus_mus_hu_False|28_98 (ssRNA)
RNA: GGGAGUUCUACAGUCCGACGAUCGUUGACAGAGUUGUAAAUGGUGGCUUCAUGGAACUGGAAAGGGGAGCAGCCAAUGCUGUUAGAAGAGGAAGGAAGGCACUGGGUCUGCACGAGCUGCCAGGAAUCCGAUCUUGCAUCCUUCAACAGAGGAUUGAGCAUCA
B2: chr2:48034705:48034706:-_ENSG00000138081_ENST00000403359|hu_mus|motif|central (ssRNA)
RNA: GGGAGUUCUACAGUCCGACGAUCCAUAGAAAGAAGGUACAUACUGGGACAUGAGUACAGUUACAGCAAGUCUAGGUGUGCGGACAAAACAGGGCACAUUCAAGUACAAUAAGAUUUGCUUGAAAUUAAAAACGAACUACAUGACAACAGAGGAUUGAGCAUCA
B3: 168328940_168329060_1778_3pUTR_ENSMUSG00000040596_ENSMUST00000169324|mouse|control|control (ssRNA)
RNA: GGGAGUUCUACAGUCCGACGAUCUGUGGCACUUUCUGAACCCCUGGACAAUUGAUUCACUUGAGAUGCUGUUCCAUGCAACCAUGAUCCACUCCAGGAAGAGGCCCAGGGGGGGCUUCUUAGCAUUUCCAGUGGGGCUGAGUGCAACAGAGGAUUGAGCAUCA
B4: chr3:179287964:179287965:+_ENSG00000136518_ENST00000429709|hu_hu|hu_hu_hu_mus_True|78_108 (ssRNA)
RNA: GGGAGUUCUACAGUCCGACGAUCCUUUAGAGGUGAAAUGGCCUCCAUGUUCUCCCUCGGAACACGCAGGGCAUUGGUGUCUAUGUAGUAGGUGGGCCCGCCCUGCUUGCCUUUGUCACCAUCAAUCUCCAUCAUUGUACUUCCCAACAGAGGAUUGAGCAUCA
B5: chr2:42509997:42509998:+_ENSG00000143924_ENST00000318522|hu_mus|hu_hu_hu_mus_True|1_1 (ssRNA)
RNA: GGGAGUUCUACAGUCCGACGAUCUCGCUGAGUCCUCUCCUCAUAAUUAAACAGGACUACCACUGAGGCGAUAAAAUAAACUAUCUCCCCUGUGGGAAGCAGGUAUACAUUCGCUCUACAGUCCUUUCCUCGAUAACCAUAUGCCAACAGAGGAUUGAGCAUCA
B6: chr21:34924380:34924381:+_ENSG00000159140_ENST00000381679|hu_hu|FALSE|FALSE (ssRNA)
RNA: GGGAGUUCUACAGUCCGACGAUCUCUAGGUGACAUCCUAUAGGGAUCAGGAGUUAGUCUGUAGGGAUCAUGGCCUAAUCUAUAAGGGUCUUGUCCUAACCUGUAAGCAUCAUGACCUAAUCUAUAGGGGUCAUGGCCCAACCUCAACAGAGGAUUGAGCAUCA
B7: 65694603_65694723_2569_CDS_ENSMUSG00000021978_ENSMUST00000022550|mouse|control|control (ssRNA)
RNA: GGGAGUUCUACAGUCCGACGAUCUCCGAGCGCUGCCUGGAACUCCUUGCCAGAGCCCCCAGCCCCGCCACCGAUGGGCCGAAAUCCAGUCCCUGAGCCCAGGAAUUUGGCCUCAGAGGGCAACACAGGAUCAAAGGGUGUGUGCAACAGAGGAUUGAGCAUCA
B8: chr3:176767854:176767855:-_ENSG00000177565_ENST00000430069|hu_hu|hu_hu_hu_mus_False|68_108 (ssRNA)
RNA: GGGAGUUCUACAGUCCGACGAUCGACAUCCUUGUUGCUGGGCACGUCCUGCCCUCCUUCCCGUAUGCAAUGUCUAAGCACGAGCUGCGUAGGGCCACUCGUGCUGUUCUCACUGAGGUUCCAGAUUCUUGCCGUGGAGUCUCCCAACAGAGGAUUGAGCAUCA
B9: chr11:21231013:21231014:-_ENSMUSG00000001891_ENSMUST00000060895|mus_hu|FALSE|FALSE (ssRNA)
RNA: GGGAGUUCUACAGUCCGACGAUCAAAAAUAUACUCUUUGCCUUCUCCUAUAAAGGUAUCAAGCAAUCCAGAGUUGUAGAAACUGGCGUAAAUAUCACCAUGACCUGGAGGGUACCAAGCUUCUGUAUUUUCCCCUGAGUAAGACAACAGAGGAUUGAGCAUCA
B10: chr19:8913615:8913616:-_ENSMUSG00000071658_ENSMUST00000096259|mus_hu|mus_mus_mus_hu_False|48_48 (ssRNA)
RNA: GGGAGUUCUACAGUCCGACGAUCAGGGUACCAAAACCUUCUGCCUGAAAUGGGUGCCCCACCCAGUAGGGAGUUGCAGCUGAAAGUAUCCGUAGCAGAAGCAGUGACUAUACGAAAGGAGGCCCCUGGGGAGGGCCAGGCCAGCAACAGAGGAUUGAGCAUCA
B11: chrX:98862621:98862622:+_ENSMUSG00000034160_ENSMUST00000044475|mus_hu|mus_mus_mus_hu_False|38_78 (ssRNA)
RNA: GGGAGUUCUACAGUCCGACGAUCCUGCAUCUCCUUUAGAGUGUUUCCCAUAUUAGAAUAAGCAUCAGCAAAGGUAGGACUGAUUCGAAUAGCCUCCUUAUAGUGCAUCAGAGCUUCCUGCAGUUUUCCCUGCUGCUGCAGUACCAACAGAGGAUUGAGCAUCA
B12: chr3:150285740:150285741:+_ENSG00000144895_ENST00000460851|hu_hu|motif|central (ssRNA)
RNA: GGGAGUUCUACAGUCCGACGAUCAGCUUUUUUAUUCCACAGCAUUGUAACUUUAUCUGCCUUAAAGAAACUUUUAUUAGCGGAAGCUGCAUGAGGUCCAGCAAAGUUGGGGUACUGAUAUAAUCUAACAAAUGAAGGUGCACCCAACAGAGGAUUGAGCAUCA
B13: chr2:198351390:198351391:-_ENSG00000144381_ENST00000345042|hu_hu|hu_hu_hu_mus_False|18_58 (ssRNA)
RNA: GGGAGUUCUACAGUCCGACGAUCUCAUUCCCACCCUCCACAGAAAGGCUGCUUCUGAACUCUCAUGUGGUGACACAGCACUAAAAUCCUGAUGCUCACAGAACAGUAGAGAUGCCUCCUCAGUGAUAGUUGAAAGCAGGACACCAACAGAGGAUUGAGCAUCA
B14: chr2:26245550:26245551:+_ENSMUSG00000026926_ENSMUST00000076431|mus_hu|FALSE|FALSE (ssRNA)
RNA: GGGAGUUCUACAGUCCGACGAUCAUUAUCCAAUGUGGUUACUUUGGUUUCAAACUUUUCCUGUCCAUCAACUGUAGCAAAAACAGGCUUGGGUACUCCAGGUAAGGGAGAAGAGAGGGGGAUGUUGGGAUAGGCACCACCACUCAACAGAGGAUUGAGCAUCA

Some of the results follow.

This assay deals with T1, UNK ZnF1-3. The experiment in a line: nsRBNS (natural sequence RNA bind-n-seq); RBNS binding buffer (assumed for nsRBNS): 25 mM Tris pH 7.5, 150 mM KCl, 3 mM MgCl2, 0.01% Triton X-100, 500 ug/ml BSA, 20 U/ml SUPERase-In, 4 C; UNK is unkempt and MSI1 is Musashi-1; names of the RNAs are library labels; protein concentration not given here; high values mean tight binding.
The molecule B1 had a binding signal of 1.8 enrichment R.
As to B2, the binding signal came out at 1.36 enrichment R.
B3 returned a binding signal of 0.974 enrichment R.
In turn, B4 registered a binding signal of 0.554 enrichment R.
B5 registered a binding signal of 1.03 enrichment R.
For B6, the binding signal turned out to be 0.864 enrichment R.
The molecule B7 showed a binding signal of 1.27 enrichment R.
The molecule B8 showed a binding signal of 0.551 enrichment R.
With B9, the binding signal stood at 1.06 enrichment R.
B10 registered a binding signal of 1.45 enrichment R.
B11 displayed a binding signal of 1.15 enrichment R.
B12 had a binding signal of 1.91 enrichment R.
B13 gave a binding signal of 1.1 enrichment R.
To B14 belongs 1.73 enrichment R.

Values taken from PMC12136788.
